Drawing on the supplement of paper PMC4967469, this text covers AUC and IC50 for six cell lines.

By IC50 is meant the dose at which the fit gives 50% viability; fits outside the tested doses are given as limits. For AUC the same curve is integrated over the 256-fold range of doses and scaled to a fraction: 1 means no effect, lower means more sensitive. For some assays here: A top dose marked as inferred comes from the curve model; the source does not state it. For some assays here: An entry number marks a drug with two screens in the source, which often give different values.

Experiment in all cases: Viability of human cancer cell lines after 72 h of drug (GDSC screen)
Compound in assay [1]: C[C@]1(O)C[C@@H](c2nc(-c3ccc4ccc(-c5ccccc5)nc4c3)c3c(N)nccn32)C1 [OSI-906]
To be noted: top dose 2.56 µM; top dose inferred. As for the experimental part:
(§1)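 Human cancer cell lines in 384-well plates, medium with 10% serum, drug for 72 h over a 256-fold dose range (nine 2-fold or five 4-fold steps up to the top dose). Adherent lines were fixed and stained with the nucleic acid dye Syto60, suspension lines read with resazurin; signal relative to control wells, capped at 0 and 100%. One two-parameter sigmoid per drug and line, fitted in a mixed model over all curves with the slope shared within a line.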

Compound in assay [2]: CCOc1nc(NC(=O)Cc2cc(OC)ccc2OC)cc(N)c1C#N [JNK Inhibitor VIII]
To be noted: top dose 10 µM; top dose inferred. How it is done:
as §1

Compound in assay [3]: COC(=O)[C@H](CCSC)NC(=O)c1ccc(NC[C@@H](N)CS)cc1-c1ccccc1 [FTI-277]
The note with it: top dose 1.024 µM; top dose inferred. How it is done:
as §1

Compound in assay [4]: c1ccc2c(CCNc3ccc(Nc4ccncc4)cc3)c[nH]c2c1 [JNJ-26854165]
The note with it: top dose 10 µM. How it is done: as §1

Compound in assay [5]: Cc1sc2c(c1C)C(c1ccc(Cl)cc1)=N[C@@H](CC(=O)OC(C)(C)C)c1nnc(C)n1-2 [JQ1]
As for the experimental part: as §1

Compound in assay [6]: Cc1ccc(C(=O)N(CCCN)[C@@H](c2nc3cc(Cl)ccc3c(=O)n2Cc2ccccc2)C(C)C)cc1 [SB-715992]
To be noted: top dose 0.128 µM; top dose inferred. As for the experimental part:
as §1

Compound in assay [7]: CC1(C)CNc2cc(NC(=O)c3cccnc3NCc3ccncc3)ccc21 [AMG-706]
To be noted: top dose 2 µM; top dose inferred. How it is done:
as §1

Compound in assay [8]: O=C(/C=C/c1cccc(S(=O)(=O)Nc2ccccc2)c1)NO [Belinostat]
To be noted: top dose 20 µM; top dose inferred. As for the experimental part: as §1

Compound in assay [9]: COCC[n+]1c2c(n(Cc3cnccn3)c1C)C(=O)c1ccccc1C2=O [YM155]
The note with it: top dose 5.12 µM. As for the experimental part: as §1

Compound in assay [10]: CN1CCN(c2ccc([N+](=O)[O-])c3no[n+]([O-])c23)CC1 [NSC-207895]
To be noted: top dose 20 µM; top dose inferred. As for the experimental part: as §1

Compound in assay [11]: CC(=O)O[C@@]12CO[C@@H]1C[C@H](O)[C@@]1(C)C(=O)[C@H](O)C3=C(C)[C@@H](OC(=O)[C@H](O)[C@@H](NC(=O)OC(C)(C)C)c4ccccc4)C[C@@](O)([C@@H](OC(=O)c4ccccc4)[C@H]21)C3(C)C [Docetaxel]
The note with it: top dose 0.0125 µM. How it is done: as §1

[12] abbreviates: top dose 1 µM, screen: GDSC drug entry 1218, top dose inferred.
Where [13] appears, read: top dose 2.56 µM, screen: GDSC drug entry 163.

In the case of “SBC-3 (small cell lung carcinoma, adherent)”, the AUC in assay [1] is 0.845; in assay [2], 0.989; in [3], 0.969; in assay [4], 0.902; in assay [5] (setting [12]), 0.988; in [5] (setting [13]), 0.469. In addition, the AUC in assay [6] amounted to 0.669; in assay [7], 0.986; in assay [8], 0.163; in assay [9] it was 0.021; in assay [10], 0.771. The half-maximal inhibitory concentration (IC50) (in general, the concentration needed to halve the response being measured) in assay [1] was 1600 nM; in assay [2] it was greater than 10000 nM; in assay [3], greater than 1020 nM; in assay [4] it was greater than 10000 nM; in assay [5] (setting [12]) it was greater than 1000 nM; in assay [5] (setting [13]), 133 nM. In addition, the IC50 in assay [6] was 22.5 nM; in [7] it was greater than 2000 nM; in [8], 134 nM; in [9] it was less than 20 nM; in assay [10] it was 6970 nM.
Consider SISO (cervix, adherent), for which the AUC in assay [1] was determined as 0.774; in [2] it was 0.982; in [3], 0.978; in assay [4], 0.912; in [5] (setting [12]), 0.838; in assay [5] (setting [13]), 0.609. The AUC in assay [6] was determined as 0.769; in [7], 0.957; in assay [8], 0.568; in [9] it was 0.024; in assay [10], 0.844. The IC50 is 966 nM in [1]; greater than 10000 nM in [2]; greater than 1020 nM in assay [3]; greater than 10000 nM in assay [4]; 637 nM in assay [5] (setting [12]); 314 nM in assay [5] (setting [13]). In addition, the IC50 in [6] is 46.4 nM; in [7] it was greater than 2000 nM; in assay [8], 1910 nM; in assay [9], less than 20 nM; in assay [10] it was 13400 nM.
As to SK-CO-1 (large intestine, adherent), the AUC amounted to 0.881 in assay [1]; 0.989 in assay [2]; 0.955 in assay [3]; 0.968 in assay [4]; 0.986 in [5] (setting [12]); 0.966 in [5] (setting [13]). Moreover, the AUC in [6] worked out at 0.972; in assay [7], 0.977; in assay [8] it was 0.479; in [9] it was 0.072; in [10], 0.958. Besides, the IC50 in [1] was 2410 nM; in assay [2], greater than 10000 nM; in [3] it was greater than 1020 nM; in assay [4] it was greater than 10000 nM; in assay [5] (setting [12]), greater than 1000 nM; in assay [5] (setting [13]), greater than 2560 nM. Besides, the half-maximal inhibitory concentration (IC50) in assay [6] is greater than 128 nM; in [7], greater than 2000 nM; in assay [8], 1100 nM; in assay [9], less than 20 nM; in assay [10], greater than 20000 nM.
For the cell line SK-LU-1 (lung adenocarcinoma, adherent), the AUC came out at 0.79 in assay [1]; 0.891 in assay [2]; 0.939 in assay [3]; 0.925 in assay [4]; 0.978 in assay [5] (setting [12]); 0.741 in assay [5] (setting [13]). The AUC was determined as 0.94 in [6]; 0.917 in assay [7]; 0.588 in [8]; 0.077 in assay [9]; 0.967 in assay [10]. Besides, the IC50 in [1] is 1490 nM; in [2] it was greater than 10000 nM; in assay [3], greater than 1020 nM; in [4], greater than 10000 nM; in assay [5] (setting [12]), greater than 1000 nM; in assay [5] (setting [13]), 966 nM. Further, the half-inhibitory concentration (IC50) in assay [6] is greater than 128 nM; in [7], greater than 2000 nM; in assay [8] it was 2330 nM; in assay [9], less than 20 nM; in [10], greater than 20000 nM.
On to SK-MEL-24 (melanoma, adherent), for which the AUC in [1] stood at 0.925; in assay [3] it was 0.978; in assay [4] it was 0.842; in [5] (setting [12]), 0.981; in [5] (setting [13]), 0.521; in assay [6], 0.944. The figures for the AUC in assay [8], in [11] and in assay [10] were 0.471, 0.85 and 0.964, respectively. The IC50 in assay [1] was greater than 2560 nM; in assay [3], greater than 1020 nM; in assay [4] it was 9320 nM; in assay [5] (setting [12]), greater than 1000 nM; in assay [5] (setting [13]), 185 nM; in [6], greater than 128 nM. Also, the half-inhibitory concentration (IC50) in [8] is 1030 nM; in assay [11], greater than 12.5 nM; in assay [10], greater than 20000 nM.
For the cell line “SK-MES-1 (lung squamous cell carcinoma, adherent)”, the AUC in assay [1] was determined as 0.954; in assay [2], 0.972; in assay [3], 0.933; in assay [4], 0.868; in assay [5] (setting [12]), 0.974; in [5] (setting [13]), 0.595. Further, the AUC turned out to be 0.816 in assay [6]; 0.982 in assay [7]; 0.378 in assay [8]; 0.054 in assay [9]; 0.971 in assay [10]. Moreover, the IC50 was greater than 2560 nM in [1]; greater than 10000 nM in assay [2]; greater than 1020 nM in assay [3]; greater than 10000 nM in assay [4]; greater than 1000 nM in assay [5] (setting [12]); 299 nM in [5] (setting [13]). Further, the IC50 in [6] is 79 nM; in [7] it was greater than 2000 nM; in [8] it was 559 nM; in assay [9] it was less than 20 nM; in assay [10] it was greater than 20000 nM.
